# Test results reported in PubChem BioAssay AID2147 (National Center for Advancing Translational Sciences (NCATS), 2009).
# In all, about 230,000 compounds went through this assay and about 3,600 (1.6%) were called active. The inconclusive results got no clear call from the source; some entries with a clear call stand among them for comparison. Calls follow the shape of the dose curve; as a rule, active = well fitted inhibition curve with a large enough effect (not every such curve was filed as active); inconclusive = small, poorly fitted or top-dose-only effect, or another doubt; inactive = no such curve, though single readings can be large or run the other way. Potencies of inconclusive entries are doubtful fits and often do not repeat.
# Biological target: Lysine-specific demethylase 4E (Homo sapiens) (UniProt B2RXH2)
# Chain of UniProt B2RXH2 (B2RXH2 whole entry, looked up, the tested form may be a part): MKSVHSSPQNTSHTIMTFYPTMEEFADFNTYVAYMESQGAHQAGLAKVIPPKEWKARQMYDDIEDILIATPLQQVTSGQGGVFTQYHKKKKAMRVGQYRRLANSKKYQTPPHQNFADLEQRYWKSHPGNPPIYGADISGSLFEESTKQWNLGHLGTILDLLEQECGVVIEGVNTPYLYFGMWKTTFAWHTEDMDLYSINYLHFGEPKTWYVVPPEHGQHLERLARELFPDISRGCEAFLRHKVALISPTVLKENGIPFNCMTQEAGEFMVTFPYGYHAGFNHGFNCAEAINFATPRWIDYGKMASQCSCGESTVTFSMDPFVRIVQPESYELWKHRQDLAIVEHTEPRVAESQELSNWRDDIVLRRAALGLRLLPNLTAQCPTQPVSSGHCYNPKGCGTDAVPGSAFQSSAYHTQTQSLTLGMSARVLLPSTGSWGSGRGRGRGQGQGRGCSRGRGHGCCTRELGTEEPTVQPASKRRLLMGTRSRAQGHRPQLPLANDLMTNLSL
# Assay: qHTS Assay for Inhibitors of Human Jumonji Domain Containing 2E (JMJD2E)
# Settings: JMJD2E catalytic domain, FDH-coupled NADH fluorescence (FDH is formaldehyde dehydrogenase); series mostly up to 57.1 µM; activity change, negative = inhibition: at the top concentration
# Also: nearly all actives have a fitted effect of over 50% in size.
# 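For activity change, negative = inhibition in this document: 0% = wells with enzyme and -100% = buffer wells without enzyme.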
# Potency is read from the fitted curve at half-maximal effect; tags tell the direction and shape of the fitted curve.
SMILES,Potency,"activity change, negative = inhibition"
CC(Cl)C(=O)Nc1ncc(C(F)(F)F)cc1Cl (configuration not stated),"inconclusive: 2.24 µM [inhibitor, partial curve]",–
Cc1ccc(C(CC(=O)NCCCN(C)C)c2ccc(OC(C)C)cc2)cc1 (configuration not stated),–,inactive: -0.1%
O=C(/C=C/c1ccco1)NCc1ccc2c(c1)OCO2,–,inactive: -17.9%
CC(C)[C@H](NS(=O)(=O)c1ccc2c(c1)OCCO2)C(=O)OCC(=O)Nc1ccccc1Cl,–,inactive: -0.79%
Cc1ccc(-n2c(SCC(=O)NCc3ccco3)nc3c([nH]c4ccccc43)c2=O)cc1,"inconclusive: 35.5 µM [inhibitor, single point]",–
CC1(C)CC(=O)C2=C(C1)OC(N)=C([N+](=O)[O-])C2c1cccs1 (configuration not stated),–,inactive: -0.998%
O=C(O)c1ccccc1CSC1=NCCS1,–,inactive: -2.33%
Cc1cc(Cl)c(OCCCN2CCCCC2)c(Br)c1,"inconclusive: 28.2 µM [inhibitor, single point]",–
CCN(CC)c1ccc(/C=N/Nc2ccccc2)c(O)c1,active: 15.8 µM,–
O=C(Oc1coc(CSc2nnc(NC(=O)c3cccs3)s2)cc1=O)c1ccccc1,"inconclusive: 35.5 µM [inhibitor, single point]",–
COc1ccccc1Nc1nc(N)nc(CN2CCc3ccccc3C2)n1,"inconclusive: 25.1 µM [inhibitor, single point]",–
C=Cc1c(C)c2cc3nc(cc4[nH]c(cc5nc(cc1[nH]2)C(C)=C5CCC(=O)O)c(CCC(=O)OC)c4C)[C@@]1(C)C3=CC=C(C(=O)OC)[C@H]1C(=O)OC (tested in a mixture with another compound),–,inactive: -13.6% [at 25.5 µM]
COc1ccc(NC(=O)Cc2coc3ccc4ccccc4c23)cc1S(=O)(=O)N1CCOCC1,"inconclusive: 28.2 µM [inhibitor, single point]",–
CCCCN(C)CCn1c(=S)[nH]c2ccc(N3CCOCC3)cc2c1=O,"inconclusive: 25.1 µM [inhibitor, single point]",–
CCCOc1ccc(C(=O)N/N=C/c2ccc(-c3ccc(S(=O)(=O)Nc4ncccn4)cc3)o2)cc1,"inconclusive: 28.2 µM [inhibitor, partial curve]",–
Cc1cc(=O)oc2cc(O)c(O)cc12,"inconclusive: 10 µM [inhibitor, partial curve]",–
Cc1nnc(NC(=O)c2ccc(S(=O)(=O)N(C)Cc3ccccc3)cc2)o1,"inconclusive: 39.8 µM [inhibitor, single point]",–
CN(C)Cc1ccccc1-c1cc(N(C)C)ncn1,–,inactive: -4.84%
O=c1nc2s/c(=C\c3ccc(-c4ccccc4[N+](=O)[O-])o3)c(=O)n2nc1-c1ccccc1,–,inactive: 8.48%
Cn1c(=O)c2nc(Cl)c(-c3ccccc3)nc2n(C)c1=O,"inconclusive: 28.2 µM [inhibitor, partial curve]",–
CCc1ccc(C2CC(=O)N3CN(c4ccccc4)CSC3=C2C#N)cc1 (configuration not stated),"inconclusive: 35.5 µM [inhibitor, single point]",–
c1cc(N2CCCC2)ccc1C(c1nnnn1C1CCCCC1)N1CCOCC1 (configuration not stated),"inconclusive: 39.8 µM [inhibitor, single point]",–
Cc1cc(C(=O)Nc2sc3c(c2C#N)CCC(C)C3)no1 (configuration not stated),"inconclusive: 39.8 µM [inhibitor, single point]",–
Nc1nn(-c2ccccc2)nc1C(=O)OCc1ccccc1,"inconclusive: 31.6 µM [inhibitor, partial curve]",–

SMILES,Potency,"activity change, negative = inhibition"
Cc1ccc(NC(=O)CCC(=O)N/N=C/c2cc([N+](=O)[O-])ccc2O)cc1,"inconclusive: 28.2 µM [inhibitor, single point]",–
CCn1c(CSCc2c(Cl)cccc2Cl)n[nH]c1=S,"inconclusive: 31.6 µM [inhibitor, single point]",–
COCc1nnc(NC(=O)c2sc3ccccc3c2Cl)s1,–,inactive: -0.611%
Cc1c(CC(=O)O)c(=O)oc2c(C)c(OCc3nn[nH]n3)ccc12,"inconclusive: 28.2 µM [inhibitor, partial curve]",–
COc1ccc(CNC(=O)c2c(C)nc3ccccn23)cc1,"inconclusive: 25.1 µM [inhibitor, partial curve]",–
Cc1cc(/C=N/NC(=O)C(O)(c2ccccc2)c2ccccc2)c(C)n1-c1cccc(C(=O)O)c1,"inconclusive: 35.5 µM [inhibitor, single point]",–
NS(=O)(=O)c1ccc(CCNCc2cc(Br)ccc2OCc2ccccc2F)cc1,–,inactive: 8%
c1cncc(-c2nnc(-c3ccco3)o2)c1,"inconclusive: 28.2 µM [inhibitor, partial curve]",–
C=CCNc1nnc(Cl)c2ccccc12,"inconclusive: 39.8 µM [inhibitor, single point]",–
O=C(Oc1c(Br)cc([N+](=O)[O-])cc1Br)c1cccnc1,–,inactive: -3.8%
O=c1c(-c2nnc(SCc3ccc(Cl)cc3)o2)cccn1Cc1ccccc1,"inconclusive: 31.6 µM [inhibitor, partial curve]",–
COc1ccc(-n2c(C)cc(C3=NNC(=NC4CC4)SC3)c2C)cc1,"inconclusive: 20 µM [inhibitor, single point]",–
O=C1CCCC2=C1C(c1cccs1)n1nc(SCc3ccccc3F)nc1N2 (configuration not stated),"inconclusive: 25.1 µM [inhibitor, partial curve]",–
Nc1n[nH]c2c1C1(CCCCC1)Cc1ccccc1-2,"inconclusive: 39.8 µM [inhibitor, single point]",–
Cc1ccc(C(=O)Nc2ccc3cn[nH]c3c2)cc1S(=O)(=O)N1CCOCC1,"inconclusive: 39.8 µM [inhibitor, single point]",–
CC(C)Oc1ccc(C2CC(=O)N(c3cccc(Br)c3)C2=O)cc1 (configuration not stated),–,inactive: -8.06%
Cc1cc(C)cc(OCC(=O)O/N=C(\N)Cc2ccc([N+](=O)[O-])cc2)c1,"inconclusive: 8.91 µM [inhibitor, partial curve]",–
CC1=NN(c2ccc(C(=O)O)c(N)c2)C(=O)C1,"inconclusive: 28.2 µM [inhibitor, partial curve]",–
Nc1nc2n(n1)C(c1ccco1)CC(c1ccc(Cl)c(Cl)c1)N2 (configuration not stated),"inconclusive: 15.8 µM [inhibitor, partial curve]",–
CCOC(=O)N1CCN(Cc2ccc(O)c3ncccc23)CC1,active: 12.6 µM,–
O=C(Cn1cnnn1)OCC(=O)c1ccc(Cl)s1,"inconclusive: 25.1 µM [inhibitor, single point]",–
CCOc1cc(C2C3=C(CCCC3=O)NC3=C2C(=O)CCC3)ccc1OCCO,active: 31.6 µM,–
O=C(c1ccc([N+](=O)[O-])cc1)N1CCSC1c1cccc(Cl)c1 (configuration not stated),–,inactive: -6.75%
Cc1ccc(O)c(C=Nc2cc(C)ccc2O)c1,active: 20 µM,–

SMILES,Potency,"activity change, negative = inhibition"
CC(C)(C)c1ccc(C(=O)CS(=O)(=O)c2ccccc2)cc1,–,inactive: 0.592%
Cc1cc(=O)oc2cc(Oc3ncccc3[N+](=O)[O-])ccc12,"inconclusive: 31.6 µM [inhibitor, partial curve]",–
COc1cc(NC(=O)c2cc3nc(-c4ccccc4)cc(-c4ccccc4)n3n2)cc(OC)c1OC,"inconclusive: 39.8 µM [inhibitor, single point]",–
COC(=O)Cc1cc(=O)n2[nH]c(C)c(-c3ccccc3)c2n1,"inconclusive: 28.2 µM [inhibitor, partial curve]",–
Cc1cccc2cc(C3CC(c4cccs4)=NN3C(=O)CCC(=O)O)c(Cl)nc12 (configuration not stated),"inconclusive: 39.8 µM [inhibitor, single point]",–
O=C1C(=O)N(CC2CCCO2)C(c2ccccc2[N+](=O)[O-])/C1=C(/O)c1ccccc1 (configuration not stated),–,inactive: -0.133%
Cc1cccc(-n2cnc(C(=O)NNC(=S)Nc3ccccc3)c2)n1,"inconclusive: 35.5 µM [inhibitor, single point]",–
COc1cccc(NC(=O)C(OC(=O)c2ccccc2NS(=O)(=O)c2cccs2)c2ccccc2)c1 (configuration not stated),"inconclusive: 31.6 µM [inhibitor, single point]",–
O=C(O)CCc1ccc(-c2cccs2)n1CCC(=O)O,"inconclusive: 17.8 µM [inhibitor, partial curve]",–
CCn1c(-c2cccs2)nc2ccccc21,"inconclusive: 28.2 µM [inhibitor, partial curve]",–
Cc1ccc(C(=O)NC(=S)Nc2ccc(NC(=O)c3cccs3)cc2)cc1[N+](=O)[O-],–,inactive: 4.66%
COc1ccc(/C=N/NC(=O)CCN2CCN(c3ccccc3)CC2)c(OC)c1OC,–,inactive: 3.06%
O=c1c(-c2ccccc2)cnc2n1CCS2,–,inactive: -0.466%
COc1cccc(Nc2ncnc3ccccc23)c1,–,inactive: -7.71%
CC(C)(C)c1cc(-c2nc(N)nc(N)n2)cc(C(C)(C)C)c1,"inconclusive: 25.1 µM [inhibitor, single point]",–
CCCn1c(O)c(N=NC(=O)c2cccnc2)c2cc(Br)ccc21,"inconclusive: 0.282 µM [inhibitor, full curve]",–
NC(=S)Nc1cccc(-c2n[nH]c(=S)o2)c1,"inconclusive: 31.6 µM [inhibitor, partial curve]",–
O=C(COc1ccc([N+](=O)[O-])cc1)N/N=C/c1ccccn1,–,inactive: 2.52%
Cc1cc(C(=O)NCCCN2CCN(C3CCCCC3)CC2)n(-c2ccccc2)n1,–,inactive: -3.05%
Cc1nc(-c2cccc(NC(=O)c3cccs3)c2)cs1,–,inactive: -5.44%
O=C(Cn1cncn1)N/N=C/c1ccncc1,–,inactive: 3.38%
COc1ccc(-c2c(C#N)sc(C(N)=O)c2-c2ccc(OC)cc2)cc1,–,inactive: -4.61%
CCOC(=O)c1sc2nc(CC(=O)OC)nc(NCCN(CC)CC)c2c1C,"inconclusive: 31.6 µM [inhibitor, partial curve]",–
COc1ccc(C2(CNC(=O)/C=C/c3ccco3)CCCC2)cc1OC,"inconclusive: 31.6 µM [inhibitor, single point]",–
